# The campaign covered roughly 150,000 compounds. About 540 (0.36%) showed an effect of 50% or more. The list shows a part of the results.
# Test system: Plasmodium falciparum
# Assay: Primary screen in NF54 nanoGlo assay, in single point, at 2uM, 72h; a lower Z score goes with more inhibition
# Assay type: functional, Erythrocyte
# Conditions: timepoint 72 hour
SMILES,% Inhibition [%],Z score
Cn1c(C(=O)N2CCC(c3nccn3CC(N)=O)CC2)cc2ccccc21,-16,1.5
C[C@H]1CN(C(=O)c2ccc(N(C)C)nn2)CCN1,0,0.03
O=C(CCn1cnc2cc(-c3noc(-c4cnccn4)n3)ccc21)N1CCCCCC1,-18,2.95
CCCN(CC#N)CCN1CCOC1=O,7,-0.75
CCc1sc(C(=O)N2CCC(C(=O)O)C3CCCC32)cc1C (configuration not stated),-1,0.24
O=C1C(N2C(=O)[C@@H]3CCCN3C2=O)CCN1CCCc1ccccc1 (some centres not stated),-6,0.74
COc1ccnc(C(=O)NC2CCN(c3cc(=O)[nH]c(N)n3)CC2)c1,-11,1.61
O=C(NC(N1CCCC[C@H]1c1cccnc1)(C(F)(F)F)C(F)(F)F)c1ccccc1Cl,-13,1.68
O=C(NCc1ccncc1)C1(F)CCN(S(=O)(=O)c2cccnc2)CC1,-3,0.36
COc1ccc(OC)c(NC(=O)CN2CCN(C)c3ccccc32)c1,-6,0.98
CS(=O)(=O)c1cccc(C(=O)N2CCC[C@H]2c2cccs2)c1,-11,2.14
O=C1C(=O)N(CN2CCC(C(=O)N3CCCCCC3)CC2)c2ccc(F)cc21,6,-0.83
CCc1cnc(C)nc1N1CC[C@H](C(=O)NC)C1,-7,1.32
Cc1c(NC(=O)c2coc(C3CCC3)n2)cccc1N1CCOC1=O,-1,0.16
Cn1cc(C[C@@H](CNS(=O)(=O)c2ccc3ccccc3c2)C(N)=O)cn1,-15,2.06
CCn1nnc(NC(=O)c2cccs2)n1,0,-0.05
Cc1csc(NC(=O)C2CCN(C(=O)CCOc3ccccc3)CC2)n1,-45,5.32
O=C(CC1CCCC1)Nc1c(-c2cccc(F)c2)n[nH]c1C1CC1,-9,0.86
CC1C(=O)N(CC(O)CCc2ccccc2)C(=O)C1C (configuration not stated),0,0.05
Cc1cnc(CN[C@@H](C)c2ccc(Br)cc2)s1,-15,2.34
CNc1ccccc1C(=O)NC[C@H]1CCN(Cc2cnc(C)nc2)C1,-11,1.96
CCCc1nnc2sc(-c3ccc[nH]3)nn12,-4,0.36

SMILES,% Inhibition [%],Z score
Cc1n[nH]c(=O)c2cc3c(C)n[nH]c(=O)c3cc12,-10,1.05
CN1CCCC1C(=O)NC(c1c(F)cccc1F)C(F)(F)F (configuration not stated),-20,3.85
COC(=O)C12CCCC1CN(CC(=O)NC(C)(C)C)C2 (configuration not stated),-7,0.82
COc1c(F)cc(-c2cn(C[C@H]3COCCO3)nn2)cc1Cl,-10,1.87
Cn1c(CN2CCN(C(=O)c3ccccc3)CC2)cc(=O)n(C)c1=O,0,0.03
COc1c2c(c(S(=O)(=O)NC3CCCC3)c3c1C(=O)N(C)CC3)OCO2,-11,1.71
O=C(c1cccc(Oc2ccc(Cl)cc2)n1)N1CC[C@@H](O)C1,-7,0.6
CCC(CC)CN(CC)CC(=O)Nc1c(C)n[nH]c1C,-6,0.82
C[C@@H](CCC(=O)NCCc1ccc(Cl)cc1)N1CCCC1,2,-0.26
O=C(c1ccccc1)c1ccc2n1CC[C@H]2C(=O)Nc1cc(F)cc(F)c1,32,-3.61
CN1CCN(C(=O)CN2C(=O)CN(C(=O)Nc3ccccc3)c3ccccc32)CC1,-11,1.57
COCCCNC(=O)C(=O)Nc1ccnn1C1CCCCC1,31,-0.47
O=C(O)C[C@@H]1CCN(C(=O)Nc2ccccc2)C[C@@H]1Cc1nc2ccccc2[nH]1,-11,1.79
C[C@H]1CN(Cc2cccn2C(F)F)CC(=O)N1,-4,0.69
CN=C(NCC(=O)N(C)CC(F)(F)F)NCc1ccc(C)cc1,34,-1.21
COC(=O)[C@H]1CC[C@H](C(=O)Nc2nccc(C)n2)CC1,-6,0.99
O=C(c1cccc(-n2cncn2)c1)N1CCCC1,-11,1.02
CCC1(C)CN(C(=O)NCc2nnc(C3CC3)s2)C1,-5,0.71
C[C@H]1CN(C)c2ccccc2-[n+]2ccsc21,3,-0.49
CNS(=O)(=O)Cc1cccc(CNc2ccc3nccn3n2)c1,-7,0.71
CN(CCCc1cnn(C)c1)[C@H]1CN(Cc2ccoc2)C[C@@H]1O,-11,1.06
COc1cccc(CNC(=O)N2CCCS(=O)(=O)CC2)n1,9,-1.16

SMILES,% Inhibition [%],Z score
Cc1ccc(CN(Cc2ccc(C(O)(c3ccccc3)c3ccccc3)o2)C2CC2)o1,-11,1.36
CC(C)[C@@H]1CCO[C@@H]1c1nc(C2CCS(=O)(=O)C2)no1 (some centres not stated),2,-0.17
CN1CCN(C(=O)c2ccc3nc(C4CC4)oc3c2)[C@@H](c2ccccc2)C1,19,-1.66
CN(C1CC1)S(=O)(=O)NCC1(c2cccc(OC(F)(F)F)c2)CCC1,0,0.03
Cc1cnn(CCC(=O)NC2CCN(CC3CCCO3)CC2C)c1 (configuration not stated),4,-0.45
O=S(=O)(CCOc1ccc(F)cc1)N[C@H]1COC[C@@H]1O,-13,1.67
CCn1cc(C(=O)N[C@@]23CCCC[C@@H]2NC(=O)C3)c(C2CC2)n1,-1,0.18
Cc1occc1CN(C)c1nnc([C@]2(C)CCCO2)n1C,-4,0.4
Cc1ncccc1C(=O)NCCc1ncc(C)n1C1CCCCCC1,1,-0.15
CC(C)n1cc(CNc2ccc3nccc(O)c3c2)cn1,0,-0.06
CCOc1cc(CNC2CCCCC2)cc(Cl)c1OCc1ccccc1Cl,1,-0.09
O=C(NCCc1csc(-c2ccccc2)n1)C1CCN(C(=O)Cc2cccs2)CC1,-8,1.01
O=C(Cc1nnc(-c2ccncc2)o1)NCc1ccccc1,2,-0.25
Cn1ccnc1[C@H]1CCN(c2nccn(C)c2=O)C1,-12,1.63
COc1ccc(-c2ccc(=O)n(-c3c(C)noc3C)n2)cc1S(=O)(=O)N1CCCCC1,2,-0.2
Cc1nc(N2CC[C@H](S(N)(=O)=O)C2)nc(C)c1CC(C)C,-8,0.71
Cc1nn(C)cc1S(=O)(=O)N1CCC2(CCC(=O)N(C(C)C)C2)CC1,-3,0.57
COc1cc(C)c(CN2CCC(CCC(=O)O)CC2)c(C)n1,-2,0.24
O=C(Cn1cncn1)N1CC[C@H](Oc2ccccn2)C1,-11,2.04
Cc1cnc(NC(=O)[C@H]2CCc3cnn(C)c3C2)c(Br)c1,-7,0.86
CCN1CCN(c2c(CN(C(=O)c3ccc(Cl)cc3Cl)C(C)C)c(C)nn2-c2ccccc2)CC1,-10,0.85
Cc1cc(CN(C)c2ccnc3cc(Br)cnc23)no1,12,-0.99

SMILES,% Inhibition [%],Z score
CCC(O)CNC(CC)c1c(C)nn(C)c1C (configuration not stated),-2,0.18
O=C(COc1ccc(Cl)cc1)N1CC[C@H](Oc2ccc3ccccc3n2)C1,-18,3.35
Cc1c(Cl)cccc1OCC(=O)N(CCC(=O)O)CC(C)C,-2,0.23
Nc1cc(-c2cc(O)cc(CC[C@H]3CCCCN3)c2)ccn1,9,-1.53
CC(C)c1nc(CN2CCN(c3ccccc3F)CC2)cc(=O)[nH]1,-9,1.44
CNc1ncnc2cc(C(=O)NCc3ccn(C(C)C)n3)ccc12,-9,1.83
CCO[C@@H](C)c1nc(CN(C)C(=O)c2n[nH]c3ccccc23)cs1,-7,0.71
Cc1ccc(C(=O)N2CCC3(CC2)CN(C)CCCN3C)cc1F,-6,1.16
CC(C)c1nn(C)cc1C(=O)N1CC(CO)C1,-7,1.2
Cc1ncsc1CN1CC(c2nc(CCN(C)C(=O)C3CCOCC3)no2)C1,-6,0.76
Cc1ncsc1CNc1ccc2nc(N(C)C)oc2c1,4,-0.76
Cc1ccc(CNC(=O)[C@@]23CCCC[C@H]2N(C2CC2)S(=O)(=O)CC3)o1,-15,1.71
CCc1nsc(NCC(=O)N2CCCO2)n1,-11,2.1
CC(C)(C)C(=O)N1CCc2ccc(OCc3ccc(C(=O)NCCN4CCCC4)o3)cc2[C@@H]1c1cccc(F)c1,-1,0.15
CC(C)c1ncc(C(=O)OCCN2C(=O)CNC2=O)s1,-5,0.84
COCCC[C@H]1CCCCN1C(=O)c1ccc2[nH]ccc2c1,-7,1.38
O=C(c1ccccn1)N1C[C@H]2CC[C@@H](C1)N(C(=O)c1ccc3cc[nH]c3c1)C2,6,-0.62
Cc1nc(CC(C)C)oc1C(=O)N[C@H]1CCCc2sccc21,-9,1.22
CN1CCN(CC(C)(C)NC(=O)N2CC[C@H]2c2ccc(F)cc2)CC1,7,-1.22
C[C@]1(c2ccccc2)CCC(=O)N(CCC(=O)O)C1,-7,1.04
